# Results: the supplement of paper PMC12889115
# The list shows a part of the results. Rule as the data show it: active = 25% or less and inactive = the rest. Repeats are few or missing, and single values can be far off.
# Test system: Salmonella enterica serovar Typhimurium SL1344
# Test: intramacrophage bacterial GFP load (SAFIRE), percent of DMSO control (% of DMSO); higher = more intracellular bacteria (less inhibition)
# Settings: 25 µM; system: infected RAW 264.7 macrophages
# Protocol: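 Secondary screen of the 553 primary hits at 25 µM. (i) S. Typhimurium SL1344 grown in Mueller-Hinton broth with 0.5 µg/mL polymyxin B, OD600 read after 18 h. (ii) SAFIRE assay: RAW 264.7 macrophages infected with S. Typhimurium sifB::gfp (MOI 30); compound added 2 h post-infection; cells fixed at 18 h; GFP-positive pixel fraction per macrophage imaged by confocal microscopy and expressed as % of DMSO control.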
# 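Also: compounds tested were the hits of an earlier 50 µM broth growth screen of a drug-like diversity library run with polymyxin B.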
row,SMILES,intramacrophage bacterial GFP load
1,CN(C)C1(C(=O)N2CCCC2c2ccc(F)cc2)Cc2ccccc2C1 (stereo not given),inactive: 34.2
2,Cc1oc(-c2cccc(Oc3ccccc3)c2)nc1CN1CCN(c2cnccn2)CC1,active: 14
3,CC(C(=O)N(Cc1ccncc1)Cc1cccc(OCCc2ccc(F)cc2)c1)c1n[nH]c(=O)c2ccccc12 (stereo not given),inactive: 48.7
4,Cc1ccsc1C(=O)N(Cc1ccc(OCc2ccc3c(c2)OCO3)cc1)CC1CCCO1 (stereo not given),inactive: 76.8
5,O=C(NC1(c2ccccc2)CC1)c1cc(COc2ccc(F)c(F)c2)on1,inactive: 209
6,Cc1ccc(F)cc1S(=O)(=O)N1CCCC(CO)(Cc2cccc(Cl)c2)C1 (stereo not given),inactive: 107
7,Cc1cccc(N2CCN(C(=O)c3cn(Cc4ccccc4F)nn3)CC2)c1C,inactive: 135
8,OCCOc1cccc(CN2Cc3ccccc3OC(c3ccccc3F)C2)c1 (stereo not given),inactive: 95.8
9,Cc1nn(C)c(C)c1CN(C(=O)CC1(c2ccc(-c3ccccc3)cc2)CC(=O)N(C)C1=O)C1CC1 (stereo not given),inactive: 109
10,O=C(CC1(c2ccccc2)CC(=O)N(CCc2ccccn2)C1=O)N1CCC(Cc2ccccc2)CC1 (stereo not given),inactive: 45.3
11,Cc1ccc(OCc2cc(C(=O)N(C)CCC(C)C)no2)cc1C,inactive: 92.7
12,O=C(C1CC12CCCC2)N1CCc2[nH]nc(-c3ccc4c(c3)OCO4)c2C1 (stereo not given),inactive: 76.5
13,CSc1ccc(C(=O)N2CCC(C(Cc3ccc(F)cc3F)N(C)C(=O)C3CC3)CC2)cc1 (stereo not given),active: 10.3
14,OCC1CCCCN1c1ccc(-c2nc(CCc3ccccc3)no2)cn1 (stereo not given),inactive: 101
15,COc1ccccc1C(=O)C1CCCN(C(=O)c2csc(-c3cccs3)n2)C1 (stereo not given),inactive: 78.4
16,COc1ccc(CC2(CCC(=O)NC3CCCc4ccccc43)CCC(=O)N2)c2ccccc12 (stereo not given),inactive: 78.7
17,COCCN1C(=O)CC(CC(=O)N2CCC(c3ccccc3F)C2)(c2ccccc2OC)C1=O (stereo not given),inactive: 94.5
18,CCCCn1c(CN2CCCC(COC)C2)cnc1S(=O)(=O)CCCC(C)C (stereo not given),inactive: 47
19,COC(c1ccc2c(c1)CN(C(=O)C1Cc3ccccc3O1)CCO2)C1CCCCC1 (stereo not given),inactive: 42.9
20,CC(=O)c1ccc(F)c(-c2cc(C)cc3c2OC(CNC(=O)/C=C/c2ccccn2)C3)c1 (stereo not given),inactive: 172

row,SMILES,intramacrophage bacterial GFP load
1,O=C1N(CCCc2ccccc2)CCCC12CCN(c1ccccn1)C2 (stereo not given),active: 8.4
2,c1ccc(CCCc2noc(-c3ccc(N4CCCO4)nc3)n2)cc1,inactive: 106
3,COc1ccc(CCC(=O)N2CCC(CO)(Cc3ccc(Cl)cc3)CC2)cc1,inactive: 171
4,COc1ccc(-c2nn(-c3ccccc3F)cc2CN(C)C(C)c2nccs2)cc1 (stereo not given),inactive: 83.8
5,O=C(c1ccsc1)N1CCc2[nH]nc(-c3ccc(F)c(F)c3)c2C1,inactive: 182
6,COc1cc(C(=O)N(Cc2ccncc2)Cc2cccc(OCCc3ccc(F)cc3)c2)cc(OC)c1OC,inactive: 62.8
7,C=CCO[C@H]1[C@H](NC(=O)COC)c2ccccc2C12CCN(C(=O)/C=C/c1cc(F)ccc1F)CC2,inactive: 29.6
8,O=C(c1cccc(Cl)c1)C1CCCN(C(=O)Nc2ccc3c(c2)OCO3)C1 (stereo not given),inactive: 162
9,C=CC[C@@H]1CC=C[C@@H](C)N1C(=O)CC1(c2ccccc2)CC(=O)N(CCCOc2cccnc2)C1=O (stereo not given in full),active: 15.9
10,Cc1cnc(SCCN2CCOCC2)nc1C1CCCN(C(=O)CCC2CCCCC2)C1 (stereo not given),inactive: 29.9
11,COc1ccc(-c2ccccc2NC(=O)C2CCCN2CCCC(F)(F)F)cc1 (stereo not given),inactive: 26
12,CC(C)S(=O)(=O)c1ncc(CN(C)Cc2cccs2)n1CCc1ccccc1,inactive: 42.6
13,CCC1CN(Cc2ccc3ncccc3c2)Cc2cc(OC)ccc2O1 (stereo not given),inactive: 35.7
14,COc1cccc(CNC(=O)C2(N3C[C@@H](C)O[C@@H](C)C3)Cc3ccccc3C2)c1,active: 18.1
15,CSc1ncc(CN2CCc3c([nH]c4ccccc34)C2c2cccc(O)c2)cn1 (stereo not given),inactive: 103
16,CCOC(=O)C1(Cc2ccc(F)cc2)CCCN(C(=O)c2cc(C3CC3)n[nH]2)C1 (stereo not given),inactive: 64.1
17,O=C(c1cn(Cc2ccc(F)cc2)nn1)N1CCCC1c1nc2ccccc2s1 (stereo not given),inactive: 104
18,CC1CN(Cc2cccc3ncccc23)Cc2cc(Cl)ccc2O1 (stereo not given),inactive: 55.2
19,O=C(CC1(c2ccccc2Cl)CC(=O)N(C2CCCC2)C1=O)N1CCCCCC1 (stereo not given),inactive: 60.7
20,CC1CCN(Cc2nc(-c3cccc(Cl)c3)no2)CC1,inactive: 33.5
